# Data taken from the supplement of paper PMC11417369.
# The list shows a part of the results.
# Test system: PfHDP1 homeodomain (GST-tagged)
# Assay: gcPBM binding intensity (ln(normalized median fluorescence intensity)); higher = stronger DNA binding
# Procedure, shortened: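 Binding intensity values are the highest Masliner-normalised natural-log median intensity among replicate spots of either probe orientation. The binding step lasted 1 h in 1× PBS with 1% milk, 0.2 mg/ml BSA, 0.5% salmon testes DNA and 0.03% Triton X-100, using GST-tagged P. falciparum DNA-binding domains expressed in E. coli on an Agilent 4 × 180k array of primer-extended double-stranded 36-bp intergenic genomic probes plus negative controls. Alexa488 anti-GST antibody and a 488 nm scan detected bound protein.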
row,Sequence,gcPBM binding intensity (ln)
1,AACTTTTAGAAGAACACACACATATAGATTATGACC [CACACA_site6256],6.82
2,TTATAACAAATATAGAGTACTAAAATTTTACGTTAT [XGTACX_site1410],6.34
3,ACATGTATTTATAAGAGTACATATGTGTGCATGTTT [XGTACX_site7946],10.4
4,TTTATATATTATATAAATATTATTATACTTTAAATA [TGCATGCA_negctrl_site236],5.97
5,TTAATTTATTTATGCACACATATATAATTACACATA [CACACA_site4544],10.7
6,TATAACTATTTATAATGTACTCATGTATAATTATAT [XGTACX_site7913],6.38
7,TGCTATAATTTATATACACACAAATATATACTCATA [CACACA_site6111],6.51
8,TTTTATCGATATATCTGTACATATTACTTATAATAA [XGTACX_site57],6.98
9,ATGCTTTTGTCATGTGCACACACGTATATATTATAT [CACACA_site4163],11
10,AAAAAAAAAAAAAATGCATGTGCGTAAATAATAATA [TGCATGCA_site793],7.55
11,AGTATTTTAATTTCAGTGCATTTTATTCTATAATTA,8.98
12,ATATATATCTATATTTGTACATATTACATTCAAGTT [XGTACX_site1749],6.82
13,TTTAGGAAAGGCGGCACACATTTATATATTTATTTA [CACACA_site5931],6.11
14,AAGTTTTCTTACAGATGTACTTTTTAAAAATAAACT [XGTACX_site6632],6.67
15,AAAAAAAAAAAAAGATGTACATATATTTTTATTATA [XGTACX_site654],6.3
16,AAGGATATAAAAAAACGTACGTACGATAATATAATT [XGTACX_site1292],6.58
17,AACCATTCTTCTAATTGTACATTGAAAAATCATGAT [XGTACX_site3854],6.47
18,TTAGCAACTATTACTACACACATTTGTATATAATTT [CACACA_site1591],6.61
19,TTTTTTTTTTCTTGTTGTACTTTTAATAATTCATAT [XGTACX_site4704],6.79

row,Sequence,gcPBM binding intensity (ln)
1,GAAATTTTTAAAAAGGTGCTTTTAACAAAAATTATT [GTGCAC_site9687],6.05
2,TTATTAAAAAAAATATGTACTCACAATATAATATAT [XGTACX_site3738],6.42
3,ACCATCCTTAATACTTATTTTTTCACAATTAAGTAA [GTGCAC_negctrl_site269],6.56
4,TATATATATATAACATGTACATAAAATACATTTATA [XGTACX_site7370],8.93
5,ACATTATATAAAATATGTACACATAAATAAATAAAT [XGTACX_site5031],6.68
6,TCATATTATAAAAAATGTACAAGGAAAAAATATATA [XGTACX_site337],7.14
7,TAATTTTGTAAAAATTGTACATATTTATCTTTTTAT [XGTACX_site4305],6.06
8,AAAAAAAAAAAAAACACACACATATAATATATTTAA [CACACA_site1337],6.35
9,CCTACAATTCGTAATACACACACATATATATATATA [CACACA_site9251],9.17
10,AAAAAATTCAAAATCACACATAAAAAAGGACACATA [CACACA_site5972],6.86
11,ATAATAATATTATTTTGTACATATGTGCTTATTTAT [XGTACX_site5540],7.11
12,AGTAATAAGTAATTTACACACATATTATAGCATCAC [CACACA_site6971],6.64
13,TTTTGTCAACATTTTTATATTAGGTCTTGAACGATT [GTGCAC_negctrl_site72],6.25
14,GTATAATTTAAAAAGTGTACATAAAGTTTTTATTAA [XGTACX_site1090],6.18
15,TTATTACCATATTTTGTACACACATCTTTATCTCAA [CACACA_site9054],7.02
16,CTTGGGCGTCATAATGAACACACAATTATATTATGA [CACACA_site9297],6.13
17,ATATATACAAATCCTTTTTTCCAAGATGGAAAAAGA [CACACA_negctrl_site382],6.21
18,AAAATAATAAATAACGCATGCGTGTGCATTTTATTC [TGCATGCA_site898],9.97
19,TATATATAAGCGCATGCACACGCAAAGGTATATAAA [CACACA_site8107],8.49

row,Sequence,gcPBM binding intensity (ln)
1,ATTATATAATCTATATGTACATATATATATATATAT [XGTACX_site4970],9.36
2,TTTTTTTTTTACTTCACACATATACATTTATATTTA [CACACA_site4385],6.8
3,TAAACATACAGATACACACACACACCCACAGAGACA [CACACA_site4429],7.07
4,ATATATATGGTCATTTGTACATATCGTGAGAGCTGC [XGTACX_site4117],6.55
5,ATATAACATAATGGATGTACATGTATAAATATAAAA [XGTACX_site8228],7.06
6,AGAATCACCAAATATGTACACACCTTAACATGTTTA [CACACA_site2068],6.77
7,TATATTATAAATTAATGTACGTAATTTTTTTTTTTT [XGTACX_site2500],6.17
8,ATAATGAAGACTTTTTTACACACTTCATATATTATA [CACACA_site8630],6.98
9,TGATATTTTTCCATAGTGCAAAATATAGTAATGTAT,9.38
10,AAATTGTTAAAAAGAAGTACATTCTTTTATTTCTTA [XGTACX_site540],6.06
11,TAAATGTGTATATATTGTACAAATATTAATACATAC [XGTACX_site8102],6.62
12,AAAGAACTTAATGCTGCACACAAAAAAAAGGAAAAA [CACACA_site8375],7.33
13,AGAACGACTAAGCAGTGTACATTTTGTATATACAAT [XGTACX_site2831],6.5
14,TTACATACATACAAGTGTACGCATATATTAATATTA [XGTACX_site4006],6.71
15,TTTAACATTTCAGATGTGCACATTTTCCGAACCAGT,10.9
16,ATATGTACAAGTTATACACACATGTACAGTTATATA [CACACA_site6706],6.82
17,AGTATACATATATATACACACACATATATATATATA [CACACA_site7883],9.29
18,CTTATATGAAGCCTCTTTATTCATAAATAAGAATAA [TGCATGCA_negctrl_site120],6.16
19,CCAACATAGAGGGGCACACACATATATACATAAAAA [CACACA_site1847],6.7
